Read counts are not given, so values of variants with three or more changes are uncertain.
B1: LINE1-mini (parent)
chain: GGCAGAGCUCAACACAGCGUGGCAAAGUGGCUGUGGCUAGACUGCC

Variants of: B1
Test: self-cleavage, relative activity (ratio to wild type); higher = more cleavage; in vitro, sequencing; the parent is a self-cleaving ribozyme

Variant | self-cleavage
GGUAGAGCUCAACACAGCGUGGCAAAGUGGCUGUCGCUAGACUUCC [C3U G35C G44U] | 0.06
GGCCGAGUUCAACACUUCGUGGCAAAGUGGCUGUGGCUAGACUGCC [A4C C8U A16U G17U] | 0.02
GGUAGAGCGCAACACAGCGUGCUAAAGUGGCUGUGGCUAGACUACC [C3U U9G G22C C23U G44A] | 0.02
GGCCGAGCUCUACACAGCGUAGCAAAUUGGUUGUGGCUAGACUGCC [A4C A11U G21A G27U C31U] | 0.02
GGUAGAGCUCAACACAGCGUGGCAAAGUGGCUUAGGCUAGACUGCC [C3U G33U U34A] | 0.25
GGCCGAGCUCAUCACAGCGUGGCAAAGGGGCUUCGGCUAGACCGCC [A4C A12U U28G G33U U34C U43C] | 0
GGCCGAGUUGAACACAGCGUAGCAAAGUUGCUGUGGCUAAACUGCC [A4C C8U C10G G21A G29U G40A] | 0.01
GGUAGAGCUCAACACAGCGUGGCAAAGAGGCUGUGGAUAUACUGCC [C3U U28A C37A G40U] | 0.73
GGUAGAGCGCAACACAGCGUGGCAAAGUGGCUGUGGCUAGACUGGC [C3U U9G C45G] | 0.03
GGUAGAGCUCAACACAGCGGGGCAAAGUAGCUGUGGCUAGACUGCC [C3U U20G G29A] | 0.19
GGUAGAGCUCAACACAGCGUCGCAAAGUGGCUGUGGGUAGACUGAC [C3U G21C C37G C45A] | 0.06
GGUAGAGCUCAACACAGCGUGGCAAAUUGGCUGUGGCCAGACCGCC [C3U G27U U38C U43C] | 0.1
GGUAGAGCUCAACACAGCGUAGCAAAGUGGCUGUGGCUACACUGCC [C3U G21A G40C] | 0.04
GGUAGAGCUCAACACAGCGCGGCAAAAUGGAUGUGGCGAGACAGCA [C3U U20C G27A C31A U38G U43A C46A] | 0.01
GGCCGAGGUCAACACAGCGUGGCACAGUGGCUGUGGCUAGACUGCC [A4C C8G A25C] | 0.05
GGUAGAGCUCAACACAGCGUGGCAAAGUGGCUGUGUCUAGACCGCC [C3U G36U U43C] | 0.07
GGCCGCGCUCAACACAGCGUGGCAAAGUGGCUGUGGAUAGACUGCC [A4C A6C C37A] | 0.01
GGUAGAGCCCAACAAAGCGUGGCAAAGUGGCUGUGGCUAGACUGCC [C3U U9C C15A] | 0.05
GGUAGAGCACCACACAGCGUGGCAAAGUACCUGUGGCCAGACUGCC [C3U U9A A11C G29A G30C U38C] | 0

Variant | self-cleavage
GGUAGAGCCCGACACCGCGAGGCAAAGUGCCUGUGGCUAGACUGUC [C3U U9C A11G A16C U20A G30C C45U] | 0.01
GGUAGAGCUCAACACAGCCUGGCAAAGUGGCUGUGGCUACACUGCC [C3U G19C G40C] | 0.02
GGUAGAGCUCAACACAGCGUGGCAAAGUGGCUUUGCCUAGACUGCC [C3U G33U G36C] | 0.09
GGCCGAGCUCCACACAGCGUGGCAAAGUGGCUGUGGCUAGACGGCC [A4C A11C U43G] | 0.03
GGCCGAGCUCAUCACAGCGUGGCAAAGUUGCUGUGGCUCGACUGCC [A4C A12U G29U A39C] | 0.03
GGUAGAGCUCAACACAGCGUGGCAAAGUGUCUUUUGCUAGACUGCC [C3U G30U G33U G35U] | 0.03
GGUAGAGCCCAACACAGCGUGGCAAACUGGCUGUGGCUAGACUGCC [C3U U9C G27C] | 0.04
GGCCGAGCUCAACCCAGCAUGUCAAAGUGGCUGUGGCUAGACUGCC [A4C A14C G19A G22U] | 0
GGUAGAGCUCAACACAGCGUUGCAAAGUGGCUGUGGCUAGAGUGCG [C3U G21U C42G C46G] | 0.01
GGUAGAGCUCAACACAGCCUGGAAAACUGGCUGUGGCUAGACUGAC [C3U G19C C23A G27C C45A] | 0.12
GGUAGAGCUCAACACAGCAUGGCAAAGUGGCUGUGGCCAGACUGCC [C3U G19A U38C] | 0.26
GGCCGAGAUCAACACAGCCUGGAAAAGUGGCGGUGGCUAGACUGCC [A4C C8A G19C C23A U32G] | 0.18
GGCCGAGCUCAACACAGCGUGGCAAAGUGGCUGUGGCUUUACUGCC [A4C A39U G40U] | 0.06
GGCCGUCCUCAACACCGCGUGGCGGAGCGGCUGUGGCUAGACUGCC [A4C A6U G7C A16C A24G A25G U28C] | 0.02
GGUAGAGCUCAACACAGCGUGACAAAGUGGCUGUGGCUACACUACC [C3U G22A G40C G44A] | 0.02
GGCCGUGCUCAACAGAGCGUGGCAAAGUGGCUGUGGCUACACUGCC [A4C A6U C15G G40C] | 0.01
GGUAGAGCUCAACACAGCGUGGCAAAGUGACUGCGGCUAGACUGUC [C3U G30A U34C C45U] | 0.08
GGCCGAGCUCUACACAGCGUGGCAAAGUGGCUGCGGCUAGACUGCC [A4C A11U U34C] | 0.04
GGCCGAGCUCAGCACUGCGUGGGAAAGUGGCUGUGUCUAGACCGCC [A4C A12G A16U C23G G36U U43C] | 0.01

Variant | self-cleavage
GGUAGAGCUCAACACAGCGGGGCAAAGUGGAUGUUGCUAGACUGCC [C3U U20G C31A G35U] | 0.02
GGCCGAGCUCAACACCGUGUGGCAAAGUGGCUUUGGCUAGACUGCC [A4C A16C C18U G33U] | 0.04
GGUAGAGCACAACACAUCGUGGCAAAGUGGCUGUGGCUAGACUGCC [C3U U9A G17U] | 0.1
GGUAGAGCCCAACACAGCGUGGCAAAGUGGGUGUAGCUAGACUGCC [C3U U9C C31G G35A] | 0.02
GGUAGAGCUCAACACAGCGAGGCAAAGUGGCUGUUGCUAGACUGCC [C3U U20A G35U] | 0.06
GGCCGAGCUCAACACAGCGUGGCUAAGUCGCUGUGGCUAGACUGCC [A4C A24U G29C] | 0.1
GGCCGAGUUCGACACAGCGUAGGAAAGUGGCUGUGGCUAGACUGCC [A4C C8U A11G G21A C23G] | 0.03
GGUAGAGCGCAACACAGCGUGGCAAAGUGGCAGUGGCUAGACAACC [C3U U9G U32A U43A G44A] | 0.03
GGUAGAGCUCAACACAGCGUGGCAAAGUUGCUGUGGCUAGACUGCG [C3U G29U C46G] | 0.26
GGCCGAGCUCAACACGGCGUGGCGAACUGGCUGUGGCUAGACUGCC [A4C A16G A24G G27C] | 0.04
GGUAGAGCUCAACACAGCGCGGCCAAGUGGAUGUGGCUAGACUGCC [C3U U20C A24C C31A] | 0.23
GGCCGAGCUCAACACAGCGUGGCCAAGUGCCUGUGGCUAGACUGCC [A4C A24C G30C] | 0.24
GGCCGAGCUCAGCACAGCGUGGCAAAGUGGGUGUGGCUUGACUGCC [A4C A12G C31G A39U] | 0.19
GGCCGAGCUCAACACAGCGUGGCAUAGUGGCAGUGGCUAGACUGCC [A4C A25U U32A] | 0.07
GGUAGAGCUCAACACAGCGUGUCAAAGUGGCUGUGGAUAGACUUCC [C3U G22U C37A G44U] | 0.69
GGCCGCGCUCAACACGGCAUGGCAAAGUGGCUGUGGCUAGACCGCC [A4C A6C A16G G19A U43C] | 0.02
GGCCGAGCUCAACACAGCGUGGCAAAGUGGCUGUGGCUGGACUUCG [A4C A39G G44U C46G] | 0.3
GGUAGAGCUCAACACAGCGUUGCAAAUUGGGUGUGGCUAGACUGCC [C3U G21U G27U C31G] | 0.02
